# Data: PubChem BioAssay AID624296 (National Center for Advancing Translational Sciences (NCATS), 2012)
# In all, about 350,000 compounds went through this assay and about 9,900 (2.8%) were called active. Inconclusive results, whose numbers are uncertain, are shown with a selection of clear calls. Calls follow the shape of the dose curve; as a rule, active = well fitted activation curve with a large enough effect; inconclusive = small, poorly fitted or top-dose-only effect; inactive = no such curve, though single readings can be large or run the other way. No potency is given beside an inconclusive call; the fits are too rough.
# Experiment: A quantitative high throughput screen for small molecules that induce DNA re-replication in MCF 10a normal breast cells. Also: nearly all actives have a fitted effect of over 50% in size. As to activity, positive = re-replication: % of control where 0% means no effect.
# Conditions: MCF 10A DNA re-replication, Hoechst nuclear intensity, 48 h; activity, positive = re-replication: at 46.1 µM (top of the series)
# Potency is read from the fitted curve at half-maximal effect; tags tell the direction and shape of the fitted curve.
Compound,Potency,"activity, positive = re-replication"
COc1cccc(N2CC(O)Cn3c2nc2c3c(=O)[nH]c(=O)n2C)c1 (centres undefined),"inconclusive [activator, single point]",–
CCc1ccc2[nH]c3nc(C)cc(C)c3c(=O)c2c1,"inconclusive [activator, partial curve, poor fit]",–
O=C(NC(=S)Nc1ccccc1Br)c1ccc2c(c1)OCO2,–,inactive: -3.2%
CCc1cc2c(=O)c(-c3nc4ccccc4n3C)c(C)oc2c(CN(CC)CC)c1O,–,inactive: -2.74%
COc1cc(C(=O)NC2Cc3ccccc3C2)ccc1OC1CCN(C(C)=O)CC1,"inconclusive [activator, partial curve]",–
Cc1ccc(C)c(S(=O)(=O)/N=C(/Nc2ccccc2)c2ccccc2)c1,"inconclusive [activator, single point]",–
O=C(Cc1ccccc1)Nc1scc(-c2ccccc2)c1C(=O)N1CCOCC1,–,inactive: 15.7%
Cc1cccn2c(=O)c3cc(C(=O)NC4CCCCC4)c(=N)n(CCN4CCOCC4)c3nc12,"inconclusive [activator, partial curve]",–
O=C(Nc1nc(-c2cccc3ccccc23)cs1)c1cnccn1,active: 18.4 µM,–
CC1(c2ccc(OC(F)F)cc2)NC(=O)N(/N=C/c2c(O)ccc3ccccc23)C1=O (centres undefined),"inconclusive [activator, single point]",–
COc1ccc2ccc3ccc(OC)c(OC(C)=O)c3c2c1,"inconclusive [activator, partial curve, poor fit]",–
CCOC(=O)C1CCN(C2=NC(=O)/C(=C/c3ccc(OC)c(OC)c3)S2)CC1,–,inactive: -0.506%
COCCN=C1Sc2nc3c(C)cccc3cc2CN1Cc1ccco1,–,inactive: 15.9%
O=C(NCc1ccc(F)cc1)C1CCC(CNS(=O)(=O)c2cccs2)CC1 (centres undefined),–,inactive: 0.0235%
CCCCCCC[N+](CC)(CC)CCCCc1ccc(Cl)cc1,"inconclusive [activator, single point]",–
CC1=C(C(=O)OCc2ccccc2)C(c2ccccc2Br)NC(=O)N1 (centres undefined),"inconclusive [activator, single point]",–
O=C(NNC1CC(=O)N(c2cccc(Cl)c2)C1=O)c1cccnc1 (centres undefined),"inconclusive [activator, single point]",–
CC(C)(C)n1ncc2c(=O)n(CC(=O)N3CCCCCC3)cnc21,"inconclusive [activator, partial curve, poor fit]",–
COC(=O)c1ccc(COc2ccc(/C=C/C(=O)c3ccc(OC)c(CSCC(=O)O)c3)cc2OC)cc1,active: 2.91 µM,–
COC(=O)C(CC(C)C)N(Cc1cc(OC)cc(OC)c1)S(=O)(=O)c1ccccc1Br (centres undefined),–,inactive: 19.2%
COc1ccc(/C=C(\NC(=O)c2ccccc2)C(=O)N/N=C/c2sccc2C)cc1,"inconclusive [activator, single point]",–
Cn1nccc1C(=O)Nc1ccc(Cl)cc1,"inconclusive [activator, partial curve, poor fit]",–
CC(C)CN1CCCC(N2CCN(c3cccc(Cl)c3)CC2)C1 (centres undefined),"inconclusive [activator, partial curve]",–

Compound,Potency,"activity, positive = re-replication"
CCSc1ccc(-c2nn(-c3ccccc3)cc2/C=C(/C#N)C(=O)NCCCOC)cc1,active: 14.6 µM,–
COc1cc(NS(=O)(=O)c2ccc(N/C=C(\C=O)c3nc4ccccc4o3)cc2)nc(OC)n1,"inconclusive [activator, full curve, poor fit]",–
Cc1nc2ccccc2n1CC(=O)N/N=C\c1ccccn1,–,inactive: 10.3%
CCCCC(C)n1[nH]c(=O)c2c(C)cc(C)nc21 (centres undefined),"inconclusive [activator, partial curve, poor fit]",–
Cc1ccc2nc(/C(C#N)=C/c3ccc(O)c(O)c3)[nH]c2c1,"inconclusive [activator, single point]",–
Cc1cc(C)nc(-n2nc(C)cc2NC(=O)CN2CCc3ccccc3C2)n1,"inconclusive [activator, single point]",–
Cc1ccc(C(=O)Nc2ncc(Cc3ccc(SC(F)F)cc3)s2)cc1,"inconclusive [activator, full curve, poor fit]",–
COc1ccc(OC)c(-c2csc(NC(=O)Cn3[nH]c(=O)c4ccccc4c3=O)n2)c1,"inconclusive [activator, partial curve]",–
O=C(Nc1nc2c(s1)CCCC2)c1ccc(S(=O)(=O)N2CCCc3ccccc32)cc1,"inconclusive [activator, partial curve, poor fit]",–
Cc1cc(C)nc(Nc2ccccc2Cl)n1,"inconclusive [activator, partial curve, poor fit]",–
Cc1ccc(N2C(=O)CC(Sc3nc(C)cc(C)n3)C2=O)cc1 (centres undefined),"inconclusive [activator, single point]",–
COc1cccc(OC)c1C(=O)Nc1ccc(C)cc1C(=O)c1ccccc1,–,inactive: 16.3%
CCC(=O)c1ccc(OCC(=O)OCC(=O)N2c3ccccc3CC2C)cc1 (centres undefined),"inconclusive [activator, partial curve, poor fit]",–
COC(=O)[C@]1(C)CCC[C@@]2(C)C3CC[C@@]4(C)C[C@]3(CCC21)CC(=O)N4Cc1ccc(OC)cc1 (some centres undefined),"inconclusive [activator, single point]",–
O=C1C=CC2(O[C@H](c3ccccc3)[C@@H](c3ccccc3)O2)[C@H](Sc2ccccc2O)C1,"inconclusive [activator, full curve, poor fit]",–
Cc1ccc2cc(CN(Cc3nnnn3C3CCCCC3)CC3CCCO3)c(=O)[nH]c2c1 (centres undefined),–,inactive: 10.8%
Cc1cc(C)c(S(=O)(=O)Nc2cc(SCC(=O)O)c(O)c3ccccc23)cc1C,"inconclusive [activator, single point]",–
O=C(Nc1ccccc1)c1ccc(-c2ccc(Br)cc2)o1,active: 20.6 µM,–
C=CCN(C(=O)Cc1cccs1)c1nc(-c2ccc(S(C)(=O)=O)cc2)cs1,"inconclusive [activator, single point]",–
CC(N=c1ccccn1C(=O)Nc1ccc(Cl)cc1)c1ccco1 (centres undefined),"inconclusive [activator, single point]",–
COc1cc2c(cc1OC)C1=CC(=O)C(=O)N1C(C)(C)C2,–,inactive: 3.5%
COc1c(C)cc(S(=O)(=O)NC2CC(C)(C)NC(C)(C)C2)c(C)c1C,"inconclusive [activator, single point]",–
CCN(CC)CCCNC(=O)c1ccc2c(=O)n(Cc3ccc4c(c3)OCO4)c(=S)[nH]c2c1,active: 23.1 µM,–

Compound,Potency,"activity, positive = re-replication"
O=C(CSc1nc(-c2ccc(F)cc2)cc(C(F)(F)F)n1)Nc1ccc2c(c1)OCO2,"inconclusive [activator, single point]",–
Cc1ccccc1/C=N/NC(=O)c1sccc1C,–,inactive: 5.36%
COc1cccc(C2CC(c3cccs3)=NN2C(=O)CCC(=O)O)c1OC (centres undefined),–,inactive: -3.05%
Cc1ccc(S(=O)(=O)Nc2cccc(C(=O)N3CCCC3)c2)cc1F,–,inactive: -2.25%
Cc1cccc(N2CCN(c3ccc4cc(S(=O)(=O)N5CCCCC5)ccc4n3)CC2)c1C,"inconclusive [activator, partial curve, poor fit]",–
CCOc1cccc2cc(C(=O)NC(C)c3ccccc3)c(=N)oc12 (centres undefined),"inconclusive [activator, single point]",–
COc1ccc(C2=CC(=O)CC(C)(C)C2)cc1OC,–,inactive: 11.7%
CCn1c(COc2cc(C)ccc2C(C)C)nnc1SCC(=O)Nc1nccs1,"inconclusive [activator, partial curve]",–
O=C1N[C@@H](Cc2ccccc2)COC(=O)[C@H](Cc2ccc(F)cc2)CC/C=C/C[C@@H]1CC(=O)N(CCO)Cc1ccccc1,"inconclusive [activator, partial curve, poor fit]",–
O=C(COC(=O)CSc1ccc([N+](=O)[O-])cc1)NCCCc1ccccc1,–,inactive: 0.457%
CSc1c(CC(=O)Nc2ccccc2C(F)(F)F)n(Cc2ccccc2)c2ccccc12,"inconclusive [activator, single point]",–
COc1ccc(N2CCN(C(c3cccs3)C(C)NS(=O)(=O)c3ccccc3)CC2)cc1 (centres undefined),"inconclusive [activator, partial curve, poor fit]",–
CCOC(=O)c1ccc(Oc2nc(NC(C)(C)C)nc(N(C)C)n2)cc1,active: 16.4 µM,–
CC1CN(c2nc3ccccc3nc2NS(=O)(=O)c2ccccc2)CC(C)O1 (centres undefined),–,inactive: -30.5%
C/C(=N\NC(=O)c1ccc(Cl)cc1)c1cccs1,–,inactive: 1.56%
COCCN(C(=O)CSc1nc2ccccc2o1)c1c(N)n(Cc2ccccc2)c(=O)[nH]c1=O,–,inactive: -0.357%
O=C(Nc1nc2ccccc2[nH]1)c1ccc(Cl)cc1,–,inactive: 4.5%
COc1ccc(/C=C/c2ccccc2)cc1[C@H]1[C@H]2C=CC[C@@H](C)[C@@H]2C(=O)N1Cc1ccccc1,–,inactive: 118%
CCN1/C(=C2/OC(=S)N(C)C2=O)Sc2ccccc21,"inconclusive [activator, single point]",–
COc1ccc(OC)c(NC(=O)NNC(=O)c2cc3occc3[nH]2)c1,–,inactive: -3.85%
COc1ccc(OCCNC(=O)Nc2cc(F)c(F)cc2Cl)cc1,"inconclusive [activator, partial curve, poor fit]",–
CCCOc1ccc(Br)cc1/C=N/O,"inconclusive [activator, single point]",–
O=C(O)c1ccc(CSc2ncn[nH]2)cc1,"inconclusive [activator, partial curve]",–
